Reference: PubChem BioAssay AID1508624 (National Center for Advancing Translational Sciences (NCATS), 2021)
In all, about 48,000 compounds went through this assay and about 120 (0.25%) were called active. Roughly 4% stayed inconclusive and do not appear here. Calls follow the shape of the dose curve; as a rule, active = well fitted activation curve with a large enough effect; inconclusive = small, poorly fitted or top-dose-only effect, or another doubt; inactive = no such curve, though single readings can be large or run the other way. The list shows a part of the results.

Assay: Primary qHTS for Identification of Small Molecule Activators of Huntingtin-Antisense Promoter Activity; also: nearly all actives have a fitted effect of over 55% in size
Settings: HEK293 HTT-AS promoter firefly luciferase reporter (activity 0% = vehicle and -100% = no light), 24 h; series mostly up to 57.5 µM; activity change, positive = activation: at the top concentration
Procedure, shortened: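 HEK293 cells carrying firefly luciferase reporters were seeded at 2,500 per well in Opti-MEM and cultured for 24 h. They were then treated with compounds at up to 57.5 uM final for 24 h at 37 degrees C before Dual-Glo luminescence readout.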

Activity change, positive = activation, inactive:
CN(C)c1ccc(CNC(=O)C2CCN(C(=O)c3ccc(-n4ccc5ccccc54)s3)CC2)cc1 -11.4%
Cc1cc(C)cc(OC(C)C(=O)Nc2nc3c(s2)CCCC3)c1 (stereo unspecified) -23.2%
COc1ccc(NC(=O)c2ccco2)cc1NC(=O)c1ccc(OC(C)C)cc1 -17.9%
CCOC(=O)c1ccc(NC(=O)C2CCCN(c3cnccn3)C2)cc1 (stereo unspecified) 25.8%
CC(=O)N1c2ccccc2CC1C(=O)N1CCN(c2ccccc2F)CC1 (stereo unspecified) -6.01%
CCOC(=O)C1=C(CNCc2ccc(Cl)cc2)NC(=O)NC1c1ccccc1 (stereo unspecified) -41.2%
COc1cccc(/C=C(\C#N)c2nc3ccccc3c(=O)[nH]2)c1OC -19.8%
COc1cc(NC(=O)Cn2cc(S(=O)(=O)N3CCC(C)CC3)c3ccccc3c2=O)cc(OC)c1OC -26.9%
CCCC(C(=O)Nc1cc(C)c(Cl)cc1OC)N1Cc2ccccc2C1=O (stereo unspecified) -18.9%
CCOc1ccc(Nc2ncnc3onc(-c4ccc(Cl)cc4)c23)cc1 -15.4%
COc1ccc(CCNC(=O)Cn2nc(-c3ccc(Cl)cc3)ccc2=O)cc1OC -19.1%
COc1cn(CC(=O)Nc2cccc(C)c2)c(CN2CCCCC2)cc1=O -4.51%
COC(=O)c1ccc(OCC2c3cc(OC)c(OC)cc3CCN2C(=O)Cc2ccc(OC)c(OC)c2)cc1 (stereo unspecified) -19.4%
CC(C)c1nn2c(=O)cc(COC(=O)c3ccc4c(c3)OCO4)nc2s1 2.45%
Cc1cn2c(=O)c(S(=O)(=O)NCCc3ccc(Cl)cc3)c(C)nc2s1 -8.38%
CC(=O)N1CCc2c(sc3c2c(=O)n(-c2ccccc2)c(=O)n3CC(=O)c2ccc(F)cc2)C1 -7.52%
COc1cc(C(=O)Nc2nnc(CC(C)(C)C)s2)cc(OC)c1OC 11.2%
CCc1ccc(NC(=O)C2CCCN2S(=O)(=O)c2cccc3nsnc23)cc1 (stereo unspecified) -21.5%
CCc1ccc2occ(CC(=O)NCc3ccccc3)c2c1 -26.5%
CCOc1ccccc1C(=O)Nc1cc2c(cc1C)n(C)c(=O)c(=O)n2C -7.47%
CCOC(=O)C1CCC(CN(Cc2ccc(OC)cc2)S(=O)(=O)c2ccc(F)c(C(=O)Nc3cc(Cl)ccc3OC)c2)CC1 (stereo unspecified) -12.4%
COc1ccc(CNC(=O)CN(C)S(=O)(=O)c2ccc3[nH]c4c(c3c2)CCCC4)cc1 -31.9%
Cn1cc(-c2cc3n(n2)CCC(=O)N3CCCC(=O)NCc2ccccc2)c2ccccc21 -23.4%
CC(C)c1ccc(NC(=O)c2cc(S(=O)(=O)NCCC3=CCCCC3)ccc2F)cc1 -34.9%
CCN(CC)CCNC(=O)Cn1cnc2sc(C)c(S(=O)(=O)N3CCC(C)CC3)c2c1=O 3.97%
COc1ccc(NC(=O)Cc2ccc(NC(=O)N3CCCCc4ccccc43)cc2)c(OC)c1 -24%
